Measured values as given in paper PMC6828672.
Results are given in words; binding and its absence hold for the method and conditions named. In cells and extracts the contact can be indirect. Some binding calls cover weakened binding; strength is not graded here. For some of these results: Tags and fused reporters may be left off the sequences shown. Values belong to the molecule of their own block, whether it stands above or below them.

Protein sequences, listed by entry. Tags and fused reporters are not part of them.
UniProt Q13547: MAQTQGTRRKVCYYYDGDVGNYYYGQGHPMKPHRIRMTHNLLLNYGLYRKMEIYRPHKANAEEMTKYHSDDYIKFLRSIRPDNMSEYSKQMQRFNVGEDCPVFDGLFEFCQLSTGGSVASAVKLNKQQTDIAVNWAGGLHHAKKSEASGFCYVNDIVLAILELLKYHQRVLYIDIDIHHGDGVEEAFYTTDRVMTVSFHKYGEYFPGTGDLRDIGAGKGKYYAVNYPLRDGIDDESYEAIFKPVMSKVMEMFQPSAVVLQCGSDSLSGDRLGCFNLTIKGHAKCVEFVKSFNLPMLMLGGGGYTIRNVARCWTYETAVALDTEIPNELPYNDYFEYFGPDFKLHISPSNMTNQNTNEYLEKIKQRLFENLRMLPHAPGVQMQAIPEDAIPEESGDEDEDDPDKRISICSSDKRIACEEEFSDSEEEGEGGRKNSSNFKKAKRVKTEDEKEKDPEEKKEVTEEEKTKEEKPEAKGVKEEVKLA

Tests used:
[1] = biological target: T1, KCTD15 as expressed for the co-immunoprecipitation with Cul3 and HDAC1 (human) (UniProt Q96SI1); test: co-IP; lysates of co-transfected HEK293T cells (50 mM Tris-HCl pH 7.6, 1% deoxycholate, 150 mM NaCl, 1% NP40, 5 mM EDTA, 100 mM NaF) incubated with anti-Flag M2 agarose beads 2 h at 4 °C; Western blot
T1 sequence: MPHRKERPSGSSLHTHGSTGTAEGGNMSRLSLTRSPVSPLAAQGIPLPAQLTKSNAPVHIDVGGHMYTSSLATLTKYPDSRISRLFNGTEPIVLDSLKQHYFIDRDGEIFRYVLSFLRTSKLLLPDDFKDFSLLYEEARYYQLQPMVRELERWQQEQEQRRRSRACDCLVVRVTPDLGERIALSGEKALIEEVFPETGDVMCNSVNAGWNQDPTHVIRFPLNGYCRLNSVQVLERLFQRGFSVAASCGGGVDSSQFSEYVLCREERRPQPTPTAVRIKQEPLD

[2] = biological target: T2, Flag-tagged KCASH2 (human) (UniProt Q4G0X4); test: as above
T2 sequence: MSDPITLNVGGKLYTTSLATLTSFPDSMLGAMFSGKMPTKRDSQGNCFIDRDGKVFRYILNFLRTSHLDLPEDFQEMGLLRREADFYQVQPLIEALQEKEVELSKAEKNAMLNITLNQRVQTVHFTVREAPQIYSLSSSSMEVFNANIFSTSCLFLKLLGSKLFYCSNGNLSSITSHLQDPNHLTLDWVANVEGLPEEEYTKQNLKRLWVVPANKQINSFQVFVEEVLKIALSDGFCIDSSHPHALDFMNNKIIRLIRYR

[3] = biological target: T3, BTB-KCASH2-Flag (human) (UniProt Q4G0X4); test: as above
T3 sequence: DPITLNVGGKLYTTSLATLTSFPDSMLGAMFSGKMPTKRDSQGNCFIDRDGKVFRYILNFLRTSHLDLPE

[4] = biological target: HA-tagged KCTD15, full length (human) (UniProt Q96SI1); test: as above
[5] = biological target: T4, KCASH3-Flag (human) (UniProt Q8NC69); test: as above
T4 sequence: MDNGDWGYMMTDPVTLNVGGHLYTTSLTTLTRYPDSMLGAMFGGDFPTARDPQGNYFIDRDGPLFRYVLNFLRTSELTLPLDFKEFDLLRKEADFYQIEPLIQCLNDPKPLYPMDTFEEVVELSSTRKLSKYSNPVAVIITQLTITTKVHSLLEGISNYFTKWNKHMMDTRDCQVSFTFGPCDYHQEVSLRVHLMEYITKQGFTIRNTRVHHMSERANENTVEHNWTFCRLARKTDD

[6] = biological target: T5, GST-KCASH2 (human) (UniProt Q4G0X4); test: pull-down; purified GST-KCASH2 or GST on glutathione-Sepharose 4B, incubated with in vitro translated KCTD15; 20 mM Hepes pH 7.9, 150 mM NaCl, 0.5 mM EDTA, 10% glycerol, 0.1% Tween 20, 4° for 2 h; Western blot with anti-KCTD15; only the target purified
T5 sequence: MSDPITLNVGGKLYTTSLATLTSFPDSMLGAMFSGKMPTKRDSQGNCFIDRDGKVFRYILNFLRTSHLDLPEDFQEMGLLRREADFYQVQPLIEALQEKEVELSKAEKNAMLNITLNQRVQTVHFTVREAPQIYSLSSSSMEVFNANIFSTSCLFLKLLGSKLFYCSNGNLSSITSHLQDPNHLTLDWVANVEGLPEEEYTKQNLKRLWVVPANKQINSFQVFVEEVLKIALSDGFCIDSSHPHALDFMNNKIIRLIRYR

[7] = biological target: T6, KCASH1-Flag (human), Q693B1; test: co-IP; lysates of co-transfected HEK293T cells (50 mM Tris-HCl pH 7.6, 1% deoxycholate, 150 mM NaCl, 1% NP40, 5 mM EDTA, 100 mM NaF) incubated with anti-Flag M2 agarose beads 2 h at 4 °C; Western blot; settings: remark: other sources report otherwise
T6 chain: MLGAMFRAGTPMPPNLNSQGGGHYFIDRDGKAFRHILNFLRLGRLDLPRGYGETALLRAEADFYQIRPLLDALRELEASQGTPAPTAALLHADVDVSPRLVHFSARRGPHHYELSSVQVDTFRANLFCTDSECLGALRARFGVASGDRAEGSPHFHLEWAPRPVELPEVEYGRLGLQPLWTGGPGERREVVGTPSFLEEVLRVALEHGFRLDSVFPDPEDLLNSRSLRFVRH

binding [1]: no binding
Molecule: HDAC1 (from UniProt Q13547 1-482) (enzyme)

binding [6]: binds
B2: in vitro translated (IVT) KCTD15 (protein, UniProt Q96SI1 1-283)
chain: MPHRKERPSGSSLHTHGSTGTAEGGNMSRLSLTRSPVSPLAAQGIPLPAQLTKSNAPVHIDVGGHMYTSSLATLTKYPDSRISRLFNGTEPIVLDSLKQHYFIDRDGEIFRYVLSFLRTSKLLLPDDFKDFSLLYEEARYYQLQPMVRELERWQQEQEQRRRSRACDCLVVRVTPDLGERIALSGEKALIEEVFPETGDVMCNSVNAGWNQDPTHVIRFPLNGYCRLNSVQVLERLFQRGFSVAASCGGGVDSSQFSEYVLCREERRPQPTPTAVRIKQEPLD
modifications: biotin on lysines (Transcent Biotin-Lysyl-tRNA in the translation mix)

The next lines start with the molecule.

B1: HA-tagged KCTD15, full length (protein, UniProt Q96SI1 1-283)
chain: MPHRKERPSGSSLHTHGSTGTAEGGNMSRLSLTRSPVSPLAAQGIPLPAQLTKSNAPVHIDVGGHMYTSSLATLTKYPDSRISRLFNGTEPIVLDSLKQHYFIDRDGEIFRYVLSFLRTSKLLLPDDFKDFSLLYEEARYYQLQPMVRELERWQQEQEQRRRSRACDCLVVRVTPDLGERIALSGEKALIEEVFPETGDVMCNSVNAGWNQDPTHVIRFPLNGYCRLNSVQVLERLFQRGFSVAASCGGGVDSSQFSEYVLCREERRPQPTPTAVRIKQEPLD
binding [2]: binds
binding [3]: binds
binding [4]: binds
binding [5]: no binding

B3: HA-tagged KCTD15, full length, Q96SI1 1-283 (protein)
chain: MPHRKERPSGSSLHTHGSTGTAEGGNMSRLSLTRSPVSPLAAQGIPLPAQLTKSNAPVHIDVGGHMYTSSLATLTKYPDSRISRLFNGTEPIVLDSLKQHYFIDRDGEIFRYVLSFLRTSKLLLPDDFKDFSLLYEEARYYQLQPMVRELERWQQEQEQRRRSRACDCLVVRVTPDLGERIALSGEKALIEEVFPETGDVMCNSVNAGWNQDPTHVIRFPLNGYCRLNSVQVLERLFQRGFSVAASCGGGVDSSQFSEYVLCREERRPQPTPTAVRIKQEPLD
binding [7]: no binding
